Measured values from PubChem BioAssay AID686971 (National Center for Advancing Translational Sciences (NCATS), 2013).
Screen size: about 360,000 compounds; about 7,500 (2.1%) were called active. The inconclusive results got no clear call from the source; some entries with a clear call stand among them for comparison. Calls come from the whole dose curve; as a rule, active = well fitted cell-killing curve with a large enough effect; inconclusive = small, poorly fitted or top-dose-only effect, or effect the other way, or another doubt; inactive = no such curve, though single readings can be large or run the other way. Potencies of inconclusive entries are left out as doubtful fits.

assay: qHTS for induction of synthetic lethality in tumor cells producing 2HG: qHTS for the HT-1080-IDH1KD cell line; details: HT-1080 IDH1 knockdown viability, ATP luminescence, 48 h; activity, negative = toxicity: at 46.1 µM (top of the series) unless noted;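 for activity, negative = toxicity: 0% = DMSO wells and -100% = cell-free medium wells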
Procedure, shortened: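 Using the IDH1-knockdown HT-1080 line run in the same batch and compound series as the NT line, viability after 48 h at 37 °C was determined by CellTiter-Glo luminescence and expressed as % activity.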
Potency is the fitted concentration of half-maximal effect; tags give direction and shape of the fitted curve.

Row | SMILES | activity, negative = toxicity | Potency
1 | CC(=O)c1cccc(NC(=S)NNC(=O)c2ccc(C)c([N+](=O)[O-])c2)c1 | inactive: -3.31% | 
2 | CC1CCCCN1C(=O)CN1CCC(c2nc3ccc(Cl)cc3[nH]2)CC1 (centres undefined) | inactive: -9.6% | 
3 | N=c1oc2ccccc2cc1C(=O)NCc1ccccc1 |  | inconclusive [cytotoxic, single point]
4 | CC(=O)C1=CCC(c2ccc(C(C)C)cc2)N(S(=O)(=O)c2ccc(C)cc2)C1 (centres undefined) |  | inconclusive [cytotoxic, single point]
5 | COc1ccc(OC)c(Nc2c3c(nc4ccccc24)CCC3)c1 |  | active: 0.58 µM
6 | COc1ccc(CCN2C(=O)C3C(C2=O)C2C=CC3C23CC3)cc1OC (centres undefined) |  | inconclusive [rising, single point]
7 | CCCCc1ccc(NC(=O)Nc2cnccn2)cc1 |  | inconclusive [cytotoxic, single point]
8 | COc1ccc(-c2[nH]c(-c3ccc4c(c3)OCO4)nc2-c2ccccc2)cc1 |  | inconclusive [cytotoxic, single point]
9 | CCOC(=O)Cc1ccc(Nc2nc3cc(-c4ccccc4C)sc3c(=O)n2C)cc1 |  | inconclusive [cytotoxic, single point]
10 | Oc1cccc2ccc[n+](CC(O)Cn3c4ccccc4c4ccccc43)c12 (centres undefined) |  | inconclusive [cytotoxic, single point]
11 | NC(=O)c1cc(Br)cc2c3c([nH]c12)CCCC3 |  | inconclusive [cytotoxic, single point]
12 | O=C(N/N=C/c1cccc2nccnc12)c1ccncc1 |  | inconclusive [cytotoxic, single point]
13 | Oc1ccc(N=Nc2ccc3c(c2)OCCO3)c2ncccc12 |  | active: 3.66 µM
14 | N#C/C(=C\c1ccccc1)C(=O)NCc1ccc(F)cc1 |  | inconclusive [cytotoxic, single point]
15 | CCN(CC)CCCNC(=S)N(Cc1cccnc1)Cc1cc2cc(C)cc(C)c2[nH]c1=O |  | inconclusive [cytotoxic, single point]
16 | O=c1[nH]c(/C=C/c2cccc3ccccc23)nc2ccccc12 | inactive: 3.33% | 
17 | CC[C@]12c3[nH]c4cc(-c5ccco5)ccc4c3CCN1C(=O)[C@@H](CC(=O)NCc1cccc(C(F)(F)F)c1)C[C@@H]2C(=O)N1CCN(C(=O)C2CC2)CC1 |  | inconclusive [cytotoxic, single point]
18 | COc1cc(OC)c(CN2CCN(c3ccc(F)cc3)CC2)cc1Br |  | inconclusive [cytotoxic, single point]
19 | Nn1c(SCC(=O)Nc2nccs2)nnc1C1CC1 | inactive: 5.96% | 
20 | COc1cc(-c2nnc(SCC(=O)N3c4ccccc4Sc4ccccc43)o2)cc(OC)c1OC | inactive: 13.2% | 
21 | CN(C)CCC(=O)C(Cc1ccccc1)c1ccccc1 (centres undefined) |  | inconclusive [cytotoxic, single point]
22 | Cc1ccc(N2C(=O)CCC2(C(N)=O)c2ccccc2)cc1 (centres undefined) | inactive: -1.55% | 
23 | FC(F)C(F)(F)c1cc(-c2ccc(Cl)cc2)n[nH]1 |  | inconclusive [cytotoxic, single point]

Row | SMILES | activity, negative = toxicity | Potency
24 | CC(C)N(C(=O)CSc1nc(COc2ccccc2)nc2ccccc12)C(C)C |  | inconclusive [cytotoxic, single point]
25 | CCc1nnc(NC(=O)CCC(=O)N2CCN(CCc3ccccc3)CC2)s1 | inactive: 8.69% | 
26 | C[C@@H](c1ccccc1)N1C[C@H](COCc2ccccc2)Oc2cc(N3CCC[C@@H]3CO)ccc2S1(=O)=O |  | inconclusive [cytotoxic, single point]
27 | C=CCC[C@@H](Cc1ccc(F)cc1)C(=O)OC[C@H](Cc1c[nH]c2ccccc12)NC(=O)[C@H](CC=C)CC(=O)N(CCO)Cc1ccccc1 |  | inconclusive [cytotoxic, single point]
28 | CC(=O)Nc1ccc(C(=O)N2CCCCC2c2cc(C(=O)Nc3cccc4c3CCCC4)no2)cc1 (centres undefined) |  | active: 5.8 µM
29 | CC1=C(C(=O)OCC(C)C)C(c2ccc(Br)s2)NC(=O)N1 (centres undefined) |  | inconclusive [cytotoxic, single point]
30 | CNc1nc(-c2c[nH]c3ccccc23)cs1 |  | inconclusive [cytotoxic, partial curve]
31 | CCOC(=O)/C(C#N)=C1\C(=O)N(Cc2ccccc2)c2ccccc21 | inactive: -2.26% | 
32 | COC(=O)c1cn(C(=O)c2ccc(OC)cc2)c2ccccc12 |  | active: 4.61 µM
33 | CCCCCCCCN1C(=O)[C@H](CC(=O)NCc2ccc(OC)c(OC)c2)C[C@@]2(C(=O)OCC)CCC=C12 |  | inconclusive [cytotoxic, single point]
34 | O=C(O)[C@@H]1[C@@H]2C[C@@H]2CN1c1ncccc1[N+](=O)[O-] | inactive: 1.91% | 
35 | COc1ccc(C2c3c(ccc4ccccc34)Oc3ncn4nc(Cc5ccccc5)nc4c32)cc1OC (centres undefined) |  | inconclusive [cytotoxic, single point]
36 | O=C(CSc1nnc(CNC(=O)c2c(F)cccc2F)o1)Nc1ccc2c(c1)OCCO2 | inactive: -11.3% | 
37 | COC(=O)c1cc(C)ccc1/C=C1/Cc2c(C)cc(C)cc2C1=O | inactive: -20.9% | 
38 | O=C(/C=C/c1ccc2c(c1)OCO2)NCCS(=O)(=O)N1CCN(c2ccc(F)cc2)CC1 |  | inconclusive [cytotoxic, full curve]
39 | CCN(CC)c1ccc(/C=C/c2cccc[n+]2C)c(OC)c1 |  | inconclusive [cytotoxic, full curve, poor fit]
40 | Cc1ccc(Nc2nc(CSc3nnnn3-c3ccccc3)cc(=O)[nH]2)cc1 |  | inconclusive [cytotoxic, partial curve, poor fit]
41 | COC1=C(C)C(=O)C2=C(C1=O)C1C3CC4=C(C(=O)C(OC)=C(C)C4=O)C(CNC(=O)C(C)=O)N3C(C#N)C(C2)N1C (centres undefined) |  | active: 0.082 µM
42 | O=[N+]([O-])c1cnc(Nc2ccc(Cl)cn2)c([N+](=O)[O-])c1 |  | inconclusive [cytotoxic, single point]
43 | O=C(c1ccccc1)c1ccccc1N1C(=O)C=CC1=O |  | inconclusive [cytotoxic, single point]
44 | CC1(C)Cc2ccccc2-c2nnc(SCC(=O)N3CCN(c4ccccc4)CC3)n21 |  | inconclusive [cytotoxic, single point]
45 | O=C(CCS(=O)(=O)Cc1ccccc1)Nc1ncc([N+](=O)[O-])s1 |  | active: 18.4 µM
46 | COc1ccccc1NC(=O)Cn1c([N+](=O)[O-])cnc1C | inconclusive: 24.5% | 

Row | SMILES | activity, negative = toxicity | Potency
47 | O=C(NCc1ccccc1)C(c1ccc(-c2ccccc2)cc1)n1c(=O)c(-c2ccco2)nc2ccccc21 (centres undefined) |  | inconclusive [cytotoxic, single point]
48 | C/C(=N\Nc1nc2c(s1)CCCC2)c1ccc(Cl)cc1 |  | active: 23.1 µM
49 | Cc1ccccc1Nc1c(-c2ccccn2)nc2ccccn12 |  | inconclusive [cytotoxic, single point]
50 | O=C(/C=C/c1ccccc1)NCC(=O)N/N=C/c1cccs1 | inactive: 19.2% | 
51 | CNC(=O)CSc1nc(N)c2c3c(sc2n1)CCC3 | inactive: -23.1% | 
52 | C/C(=N\NC(N)=S)C1C2C3CC4C5CC(C42)C1C53 (centres undefined) | inactive: -7.47% | 
53 | CCN1CCN(c2ccc(S(=O)(=O)N3CCCCC3)cc2NC(=O)Cc2ccc(OC)cc2)CC1 |  | inconclusive [cytotoxic, single point]
54 | O=C1CC(N(CCc2ccccc2)C(=S)Nc2ccccc2)C(=O)N1c1ccc(F)cc1 (centres undefined) |  | inconclusive [cytotoxic, single point]
55 | Oc1ccc(Cl)cc1N=Cc1sc2ccccc2c1Cl |  | inconclusive [cytotoxic, partial curve]
56 | Cc1nn(C2CCS(=O)(=O)C2)c2nc(C3CC3)cc(C(=O)Nc3cccc(C#N)c3)c12 (centres undefined) | inactive: -17.8% | 
57 | CSc1ccc(C(c2c(C(=O)O)[nH]c3ccccc23)c2c(C(=O)O)[nH]c3ccccc23)cc1 | inactive: -5.77% | 
58 | COc1ccc(OC(=O)COc2ccc(C)cc2)cc1 |  | inconclusive [cytotoxic, single point]
59 | O=C(CSC1=NCCS1)Nc1nc2c(s1)CCCC2 |  | inconclusive [cytotoxic, single point]
60 | O=c1[nH]c2ccc([N+](=O)[O-])cc2nc1/C=C(\O)c1ccccc1 | inactive: 7.32% | 
61 | Cc1ccc(-c2nn(-c3ccccc3)cc2/C=N/NC(=O)CSc2nnc(C)n2-c2ccccc2)cc1 |  | inconclusive [cytotoxic, single point]
62 | S=C(NCc1ccco1)Nc1cccc(Cl)c1 |  | inconclusive [cytotoxic, single point]
63 | S=c1[nH]nc(-c2ccc3ccccc3n2)n1-c1ccc2c(c1)OCCO2 | inactive: -5.47% | 
64 | CC(C)N(C(C)C)S(=O)(=O)c1ccc(N2CCc3ccccc3C2)nc1 |  | inconclusive [cytotoxic, single point]
65 | COc1ccccc1-n1c(=O)oc2ccc(Cl)cc2c1=O |  | active: 2.91 µM
66 | NC(=O)c1ccc(Oc2ccc3c(c2)CCC3)c([N+](=O)[O-])c1 |  | inconclusive [cytotoxic, single point]
67 | Cc1cc(C(=O)Nc2cccc3c2O[C@@H](CN(C)S(C)(=O)=O)[C@H](C)CN([C@@H](C)CO)C3=O)n(C)n1 | inactive: 9.81% | 
68 | COc1ccc(S(=O)(=O)N2CCC[C@H]2C(=O)N2CCC[C@H]2C(=O)NCc2ccccc2)cc1C | inactive: 10.8% | 
69 | CC(C)CNC(=S)NNC(=O)c1ccccc1OC(F)F |  | inconclusive [cytotoxic, single point]
